According to PMC10582012:
These are yes or no findings as the source states them, for the method shown. Binding seen in cells or lysates may run through a third protein. Some entries that bind do so weakly or less than the wild type. Values belong to the substance of their own block, whether it stands above or below them.

Chains of the proteins cited; added tags and fusions are not shown. Lines headed by an entry give the natural chain unless they say otherwise; changes in a name come on top.
UniProt Q13200: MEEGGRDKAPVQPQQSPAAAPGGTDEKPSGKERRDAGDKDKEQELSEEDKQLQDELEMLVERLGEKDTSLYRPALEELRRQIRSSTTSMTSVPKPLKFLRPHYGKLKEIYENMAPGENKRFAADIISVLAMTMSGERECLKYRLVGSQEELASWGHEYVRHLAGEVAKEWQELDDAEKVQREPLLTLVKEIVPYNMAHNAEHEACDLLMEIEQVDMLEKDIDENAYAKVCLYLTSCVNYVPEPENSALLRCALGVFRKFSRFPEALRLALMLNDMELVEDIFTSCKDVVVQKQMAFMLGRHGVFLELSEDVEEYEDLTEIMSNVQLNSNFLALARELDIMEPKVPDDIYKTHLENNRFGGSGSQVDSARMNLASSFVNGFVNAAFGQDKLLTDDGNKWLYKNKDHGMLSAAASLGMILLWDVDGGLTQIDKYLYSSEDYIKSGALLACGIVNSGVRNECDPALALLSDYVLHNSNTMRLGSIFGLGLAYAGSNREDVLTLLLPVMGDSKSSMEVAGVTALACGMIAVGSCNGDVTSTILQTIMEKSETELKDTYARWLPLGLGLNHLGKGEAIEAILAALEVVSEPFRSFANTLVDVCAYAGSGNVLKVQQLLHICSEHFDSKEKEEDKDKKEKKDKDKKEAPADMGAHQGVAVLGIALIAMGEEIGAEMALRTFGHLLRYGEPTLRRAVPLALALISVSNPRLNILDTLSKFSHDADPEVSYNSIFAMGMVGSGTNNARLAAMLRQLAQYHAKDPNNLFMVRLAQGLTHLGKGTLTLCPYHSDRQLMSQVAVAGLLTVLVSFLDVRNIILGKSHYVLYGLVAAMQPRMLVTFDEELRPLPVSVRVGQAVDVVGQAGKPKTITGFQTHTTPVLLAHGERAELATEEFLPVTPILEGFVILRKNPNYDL
UniProt P35222: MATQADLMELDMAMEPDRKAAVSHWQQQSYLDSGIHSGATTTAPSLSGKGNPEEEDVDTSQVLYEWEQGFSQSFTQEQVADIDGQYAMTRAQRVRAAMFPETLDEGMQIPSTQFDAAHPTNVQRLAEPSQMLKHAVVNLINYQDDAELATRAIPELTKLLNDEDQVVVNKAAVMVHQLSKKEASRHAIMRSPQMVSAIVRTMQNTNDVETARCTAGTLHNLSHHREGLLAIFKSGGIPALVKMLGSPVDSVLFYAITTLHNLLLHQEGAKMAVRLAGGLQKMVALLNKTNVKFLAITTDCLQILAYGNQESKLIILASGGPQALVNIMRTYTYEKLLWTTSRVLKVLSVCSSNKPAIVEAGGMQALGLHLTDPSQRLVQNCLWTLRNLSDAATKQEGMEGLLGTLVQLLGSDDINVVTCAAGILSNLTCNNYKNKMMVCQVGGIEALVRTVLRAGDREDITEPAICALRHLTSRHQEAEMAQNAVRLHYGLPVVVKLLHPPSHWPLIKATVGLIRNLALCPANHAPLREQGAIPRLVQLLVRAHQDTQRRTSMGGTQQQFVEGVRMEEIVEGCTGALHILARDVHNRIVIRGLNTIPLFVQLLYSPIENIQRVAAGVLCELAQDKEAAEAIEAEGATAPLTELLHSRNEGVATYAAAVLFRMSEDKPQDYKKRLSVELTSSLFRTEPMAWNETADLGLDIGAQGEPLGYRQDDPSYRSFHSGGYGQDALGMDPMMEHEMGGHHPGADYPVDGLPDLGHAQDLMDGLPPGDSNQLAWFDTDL

Key:
[1] = target: PSMD2, endogenous in HEK-293T cells (human (endogenous in HEK-293T)) (UniProt Q13200); assay: co-IP; HEK-293T cells transfected with increasing amounts of RACK1 plasmids; IP with anti-PSMD2 antibodies; endogenous PSMD2 and β-catenin
[2] = target: full-length myc-tagged β-catenin (UniProt P35222); assay: co-IP; tagged proteins co-transfected into HEK-293T cells; IP with anti-Flag, anti-HA or anti-myc antibodies; some panels with tagged ubiquitin and MG132; lysis buffer 40 mM Tris, 150 mM NaCl, 1% Triton X-100
[3] = target: β-catenin, endogenous in breast cancer cells (human (endogenous in MDA-231 and BT549)) (UniProt P35222); assay: co-IP; endogenous proteins in MDA-231 and BT549 lysates; anti-RACK1, anti-β-catenin or anti-PSMD2 antibodies; lysis buffer 40 mM Tris, 150 mM NaCl, 1% Triton X-100; also in RACK1-silenced, RACK1-rescued and β-catenin-silenced cells and in cells transfected with UB-HA and treated with MG132
[4] = target: HA-tagged full-length PSMD2 (UniProt Q13200); assay: co-IP; HEK-293T cells with exogenous β-catenin and PSMD2 in the presence of elevated RACK1 expression
[5] = target: full-length Flag-tagged PSMD2 (UniProt Q13200); assay: co-IP; tagged proteins co-transfected into HEK-293T cells; IP with anti-Flag, anti-HA or anti-myc antibodies; some panels with tagged ubiquitin and MG132; lysis buffer 40 mM Tris, 150 mM NaCl, 1% Triton X-100
[6] = target: PSMD2, endogenous in breast cancer cells (human (endogenous in MDA-231 and BT549)) (UniProt Q13200); assay: co-IP; endogenous proteins in MDA-231 and BT549 lysates; anti-RACK1, anti-β-catenin or anti-PSMD2 antibodies; lysis buffer 40 mM Tris, 150 mM NaCl, 1% Triton X-100; also in RACK1-silenced, RACK1-rescued and β-catenin-silenced cells and in cells transfected with UB-HA and treated with MG132
[7] = target: phospho-mimetic β-catenin-S33E/S37E/T41E/S45E, myc-tagged (UniProt P35222); assay: co-IP; tagged proteins co-transfected into HEK-293T cells; IP with anti-Flag, anti-HA or anti-myc antibodies; some panels with tagged ubiquitin and MG132; lysis buffer 40 mM Tris, 150 mM NaCl, 1% Triton X-100

Substance: β-catenin, endogenous in HEK-293T cells (from UniProt P35222 1-781)
binding [1]: binds

Substance: HA-tagged full-length PSMD2 (from UniProt Q13200 1-908)
binding [2]: binds

Substance: PSMD2, endogenous in breast cancer cells (from UniProt Q13200 1-908)
binding [3]: binds

Substance: β-catenin, endogenous in breast cancer cells (from UniProt P35222 1-781)
binding [6]: binds

Substance: N-terminal truncated β-catenin-ΔN, HA-tagged (from UniProt P35222 101-781) (domain or fragment)
binding [5]: no binding

Substance: full-length HA-tagged β-catenin (from UniProt P35222 1-781)
binding [5]: binds

Substance: full-length Flag-tagged PSMD2 (from UniProt Q13200 1-908)
binding [7]: binds

Continued, values first:

binding [4]: binds | binding [5]: binds
Substance: full-length myc-tagged β-catenin (from UniProt P35222 1-781)

binding [5]: binds
Substance: phospho-mimetic β-catenin-S33E/S37E/T41E/S45E, myc-tagged (from UniProt P35222 1-781)

binding [5]: no binding
Substance: phospho-deficient β-catenin-S33A/S37A/T41A/S45A, HA-tagged (from UniProt P35222 1-781)
